Laboratory results taken from the supplement of paper PMC6135742.
Counter-ions that a name gives are not always drawn. ± gives the standard deviation of the averaged measurements. In all, about 2,600 compounds were measured (“total cell number (DAPI+ nuclei) relative to DMSO vehicle control”: median about -1.4, lowest 2% from about -23 on). The list shows a part of the results.

system: jimpy (Plp1 jimpy) mouse iPSC-derived oligodendrocyte progenitor cells; assay: total cell number (DAPI+ nuclei) relative to DMSO vehicle control (SDs above negative control mean); higher = more surviving cells; settings: 10 µM; 3 days

COc1ccccc1OCCNCC(O)COc1cccc2[nH]c3ccccc3c12 (stereo not given) [Carvedilol] and CN(C)[C@@H](CCOc1cccc2ccccc12)c1ccccc1 [Dapoxetine HCl] are within error of each other in total cell number: -7.9 ± 3.3 for the first, -10.4 for the second.

Compared with Nc1ncnc2c1c(-c1cccc(OCc3ccccc3)c1)cn2C1CC(CN2CCCC2)C1 (stereo not given), O[C@@H](COc1cccc2ncccc12)CN1CCN(C2c3ccccc3[C@@H]3[C@H](c4ccccc42)C3(F)F)CC1 (stereo not given in full) is higher in total cell number: -25.8 for the first, -22.1 for the second.

Going from O=C(Nc1cccc(Cl)c1)Nc1ncc(CCNc2ncnc3ccsc23)s1 [SNS-314 Mesylate] to CC[C@H](Nc1ncnc2[nH]cnc12)c1nc2cccc(F)c2c(=O)n1-c1ccccc1 [CAL-101 (Idelalisib, GS-1101)], the total cell number falls from -0.233 to -11.4.

Going from CCc1c(C(=O)NCCc2ccc(N3CCCCC3)cc2)[nH]c2ccc(Cl)cc12 to COC(=O)Nc1nc2cc(C(=O)c3ccc(F)cc3)ccc2[nH]1 [Flubendazole], the total cell number falls from 3.49 to -5.97.

First: Nc1nc(N)nc(-c2cc(Cl)ccc2Cl)n1 [Irsogladine]
Second: NC1=N[C@@]2(c3cc(NC(=O)c4ccc(F)cn4)ccc3F)COC[C@H]2CS1
The total cell number of the first is higher: -2.08 for the first, -2.27 for the second.

First: CCN1CCCC1CNC(=O)c1cc(S(=O)(=O)CC)c(N)cc1OC (stereo not given) [Amisulpride]
Second: CC[C@@H]1C(=O)N(C)c2cnc(Nc3ccc(C(=O)NC4CCN(C)CC4)cc3OC)nc2N1C1CCCC1
The total cell number of the first is higher: -0.753 ± 1.4 for the first, -26.1 for the second.

First: CCCS(=O)(=O)Nc1ccc(F)c(C(=O)c2c[nH]c3ncc(Cl)cc23)c1F
Second: CNC(=O)CN1CCC(Oc2cc3c(Nc4cccc(Cl)c4F)ncnc3cc2OC)CC1 [AZD8931 (Sapitinib)]
The total cell number of the first is higher: 0.199 for the first, -10.1 for the second.

First: Cc1c(OCC(F)(F)F)ccnc1C[S+]([O-])c1nc2ccccc2[nH]1 (stereo not given) [Lansoprazole]
Second: Nn1nnc2ccccc21 [1-Aminobenzotriazole]
The total cell number of the first is higher: 2.3 ± 2.4 for the first, -0.722 for the second.

First: Cn1c(=O)c2c(ncn2C)n(C)c1=O [Caffeine]
Second: COC1=CC(=O)C[C@@H](C)[C@]12Oc1c(Cl)c(OC)cc(OC)c1C2=O [Griseofulvin]
The total cell number of the first is higher: -1.42 for the first, -2.76 for the second.

Going from CCCCCCCC/C=C\CCCCCCCC(=O)O [Oleic Acid] to COc1ccccc1CNCCCCCCNCCCCCCCCNCCCCCCNCc1ccccc1OC [Methoctramine tetrahydrochloride], the total cell number falls from -0.877 to -6.45.

Compared with CO[C@H]1C[C@@H]2CC[C@@H](C)[C@@](O)(O2)C(=O)C(=O)N2CCCC[C@H]2C(=O)O[C@H]([C@H](C)C[C@@H]2CC[C@@H](OP(C)(C)=O)[C@H](OC)C2)CC(=O)[C@H](C)/C=C(\C)[C@@H](O)[C@@H](OC)C(=O)[C@H](C)C[C@H](C)/C=C/C=C/C=C/1C [Ridaforolimus (Deforolimus, MK-8669)], COc1ccc2cc1Oc1ccc(cc1)C[C@H]1c3c(cc4c(c3Oc3cc5c(cc3OC)CCN(C)[C@@H]5C2)OCO4)CCN1C [Cepharanthine] is lower in total cell number: -0.664 for the first, -14.3 for the second.

CC(C)(C)NCC(O)c1ccc(O)c(CO)c1 (stereo not given) [Albuterol hemisulfate] and CC(C)(C)c1cc(/C=C(\C#N)C(N)=S)cc(C(C)(C)C)c1O [Tyrphostin AG 879] are within error of each other in total cell number: -0.752 for the first, -0.603 ± 0.72 for the second.

Going from O=C(O[C@@H]1C[C@@H]2C[C@H]3C[C@H](C1)N2CC3=O)c1c[nH]c2ccccc12 [Dolasetron mesylate hydrate] to CC(=O)O[C@H]1Cc2ccccc2N(C(N)=O)c2ccccc21, the total cell number falls from -0.866 to -1.91.

First: CC(C)(C)NC(=O)[C@@H]1CN(Cc2cccnc2)CCN1C[C@@H](O)C[C@@H](Cc1ccccc1)C(=O)N[C@H]1c2ccccc2C[C@H]1O [Indinavir sulfate salt hydrate]
Second: CN(CCCOc1ccc(Cc2ccccc2)cc1)CCC(=O)O
The total cell number of the first is lower: -1.37 for the first, -0.315 for the second.

Compared with COc1ccc(COc2cc3oc(=O)c4cc(C(C)O)ccc4c3cc2OC)cc1 (stereo not given) [Palomid 529 (P529)], COc1cc2c[n+](C)c3c4cc5c(cc4ccc3c2cc1OC)OCO5 [Nitidine chloride] is lower in total cell number: -1.92 for the first, -10.1 for the second.

First: CCC(=O)NCC[C@@H]1CCc2ccc3c(c21)CCO3 [Ramelteon]
Second: O=C(NC1CCNCC1)c1n[nH]cc1NC(=O)c1c(Cl)cccc1Cl
The total cell number of the first is higher: -0.394 for the first, -16.2 for the second.

Compared with COc1ccc(-c2coc3cc(O)cc(O)c3c2=O)cc1 [Biochanin A], CN1Cc2sccc2C(c2ccc(O)c(O)c2)C1 (stereo not given) is lower in total cell number: -0.0458 for the first, -1.59 for the second.

Going from O=S(=O)(NCCNC/C=C/c1ccc(Br)cc1)c1cccc2cnccc12 to CC(C)(C)C(=O)Oc1ccc(S(=O)(=O)Nc2ccccc2C(=O)NCC(=O)O)cc1 [Sivelestat sodium salt hydrate], the total cell number rises from -7.05 to 0.0346.

First: OCC(O)CN1CCN(c2ccccc2)CC1 (stereo not given) [Dropropizine]
Second: COc1ccccc1N1CCN(CCN2C(=O)CC3(CCCC3)CC2=O)CC1
The total cell number of the first is higher: 0.904 for the first, -1.29 for the second.

First: COc1ccccc1N1CCN(CCN2C(=O)CC3(CCCC3)CC2=O)CC1 [BMY 7378 dihydrochloride]
Second: CSc1ccc2c(c1)C(N1CCN(C)CC1)Cc1ccccc1S2 (stereo not given) [Methiothepin mesylate]
The total cell number of the first is higher: -2.22 for the first, -10.6 for the second.

Compared with C[C@H](O)C(=O)C1=Nc2c(nc(N)[nH]c2=O)NC1 [Sepiapterin], CC(C(=O)O)c1ccc2c(c1)Cc1cccnc1O2 (stereo not given) [Pranoprofen] is higher in total cell number: -0.448 for the first, 2.24 for the second.

Compared with CCCC(CCC)C(=O)O [Valproic acid sodium salt (Sodium valproate)], COC(=O)C[C@H](NC(=O)[C@H](C)NC(=O)[C@@H](NC(=O)OCc1ccccc1)C(C)C)C(=O)CF is lower in total cell number: -0.34 for the first, -1.54 for the second.

Going from CCCC(CCC)C(=O)O [Divalproex Sodium] to CC(=O)Nc1ccccc1 [Acetanilide], the total cell number falls from -0.0804 to -1.98.

First: CCCC(CCC)C(=O)O [Valproic acid sodium]
Second: CC(C)c1noc(N2CCC(COc3ccc(-c4ccc(S(C)(=O)=O)cc4)nc3)CC2)n1
The total cell number of the first is higher: 0.176 for the first, -2.21 for the second.

First: CN(C)CCCC1(c2ccc(F)cc2)OCc2cc(C#N)ccc21 (stereo not given) [Citalopram hydrobromide]
Second: C[N+]1(C)[C@@H]2C[C@@H](OC(=O)C(O)(c3cccs3)c3cccs3)C[C@H]1[C@@H]1O[C@@H]12 [Tiotropium Bromide hydrate]
The total cell number of the first is higher: -1.25 for the first, -2.07 for the second.
